The campaign covered roughly 360,000 compounds. About 17,000 (4.7%) were called active. The inconclusive results got no clear call from the source; some entries with a clear call stand among them for comparison. Cut-off read from the data, not from the text of the source: active = activity change below about -50%; inconclusive = mostly about -30% to -49%; inactive = weaker than that.
assay: qHTS for Inhibitors of Inflammasome Signaling: IL-1-beta AlphaLISA Primary Screen; settings: THP-1 LPS/ATP IL-1B secretion, 16 h; at 57.5 µM, stronger effect = lower value
Outline: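 Secreted IL-1B measured by AlphaLISA bead assay after 16 h compound exposure of THP-1 cells; compounds (final up to 57.5 uM) added 1 h before LPS (250 ng/mL) and ATP (1.25 mM) stimulation; lower signal means less secretion.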
% is set by controls: 0 for no effect and ±100 for the full control effect.

Activity change, inconclusive:
CN(Cc1cccc2ccccc12)C(=O)c1cc(COc2c(F)cccc2F)on1 -48.6%
Cc1ccc(-c2nnc3c4ccccc4c(C)nn23)cc1S(=O)(=O)N1CCN(CCO)CC1 -38.2%
Cc1ccc2c(c1)CCCN2C(=O)c1cc(C)c(C)s1 -30.1%
Cc1cc(C)cc(SCc2noc(C(=O)NCC3CC3)c2C(=O)NCC2CC2)c1 -30.5%
CCCn1nc(C(=O)Nc2nc3ccccc3[nH]2)c2ccccc2c1=O -46.5%
COc1cccc(NC(=S)N(Cc2ccccn2)Cc2ccccc2Cl)c1 -33.3%
CCOC(=O)C1=C(C)N(C)C(C)=C(C(=O)OCC)C1c1ccc(C(=O)OC)cc1 -45.4%
CCCc1c(C(=O)Nc2ccc(F)cc2C)cnn1-c1ccccc1 -46%
O=C1NC[C@H](CCCCN2C[C@H](Cc3ccccc3)N(CCc3ccccc3)C(=O)C2=O)N(CCC2CCCCC2)C1=O -39.6%
O=C(CSc1nnnn1-c1ccc2c(c1)OCCO2)Nc1nc2c(s1)CCCC2 -44.5%
COc1cc(O)cc2cc3c(c(O)c12)C(=O)CC(C)(O)O3 (stereo not drawn) -46.6%
O=C(Nc1ccc(N2CCCCC2)cc1)c1ccc(F)cc1 -40.4%
CN(CC(=O)Nc1cc([N+](=O)[O-])ccc1Cl)Cc1ccc(Br)cc1 -44.9%
CC(=O)OCC(=O)C1(O)CCC2C3CCC4=CC(=O)C=CC4(C)C3C(=O)CC21C (stereo not drawn) -44.8%
CCOC(=O)c1cc2c(=O)n3ccccc3nc2n(CC2CCCO2)c1=NC(=O)/C=C/c1ccccc1 (stereo not drawn) -34.1%
O=C(CN(c1ccc(Cl)cc1)S(=O)(=O)c1ccc(Cl)c([N+](=O)[O-])c1)NCCc1ccccc1 -40.6%
COc1ccc(S(=O)(=O)N/N=C(/C)c2cccc(NC(=O)c3ccccc3Cl)c2)cc1 -42.7%
COCCCNCCOCCOc1ccc(Cl)cc1Br -35.8%
Brc1ccc(OCCOCCOc2cccc3cccnc23)cc1 -37.3%
COC(=O)CSc1nnc(CNC(=O)c2cc(OC)cc(OC)c2)n1-c1ccc(F)cc1 -40.6%
Cc1ccc(-c2c(NC(=O)c3ccco3)oc3ccccc3c2=O)cc1 -30.3%
Nc1nc(CN2CCN(c3ccccc3)CC2)nc(Nc2ccc(Cl)cc2)n1 -34.8%
CN(CC(=O)Nc1cccc(F)c1)C(=O)/C=C/c1ccc(S(=O)(=O)N2CCCCCC2)cc1 -39.1%
Cc1c(NS(=O)(=O)c2cc([N+](=O)[O-])ccc2Cl)c(=O)n(-c2ccccc2)n1C -35%
O=C(Nc1cccc(Cl)c1)OCCOC(=O)Nc1cccc(Cl)c1 -31.6%
Cc1ccc(NC(=S)NC2CC3CCCC(C2)N3Cc2ccco2)cc1 (stereo not drawn) -31%
COc1ccc(NC(=O)c2cc3c([nH]c4ccccc43)c(C)n2)cc1 -40%
Cc1ccc(S(=O)(=O)NCC(c2ccco2)N2CCc3ccccc32)cc1 (stereo not drawn) -37.6%
CCN(CC)CCCC(C)NC(=O)c1cccc(S(=O)(=O)N2CCc3ccccc32)c1 (stereo not drawn) -41.8%
CCOC(=O)c1c(NC(=O)C[n+]2ccccc2)sc2c1CCCC2 -40.2%
O=C(Nc1cc2c3c(c1)CC(=O)N3CCC2)c1ccc(Cl)cc1 -47.7%
CCOc1cc(NC(=O)c2cccs2)c(OCC)cc1NC(=O)CCC(=O)NCc1ccccn1 -31.9%
CCCNCc1cc(OC)c(OCc2ccccc2)cc1Br -46.9%
CCC(C)(C)n1nnnc1C(c1cc2cc3c(cc2[nH]c1=O)OCO3)N1CCCCC1 (stereo not drawn) -34.4%
COC(=O)c1ccc(NC(=O)c2ccc(NC(=O)C3CCCO3)cc2)cc1 (stereo not drawn) -35.7%
Cc1ccc(-c2nn(-c3ccccc3)cc2NC(=O)c2ccccc2)cc1 -30.8%
CC(=O)c1ccc(NC(=O)CSc2nccn2C)cc1 -32.4%
CCCCN(C(=O)c1ccc(N2CCCC2=O)cc1)c1c(N)n(Cc2ccccc2)c(=O)[nH]c1=O -47.8%
CCCO/N=C1/C(=O)N(c2ccccc2)c2ccccc21 -41.6%
COc1ccc(CN(C)C(=O)c2cc(-c3ccccc3)nc3ccc(C)cc23)c(OC)c1 -34.6%
O=C(Nc1cccc(S(=O)(=O)N2CCCCC2)c1)C1CC(=O)N(Cc2ccccc2)C1 (stereo not drawn) -42.5%
O=S(=O)(c1ccccc1)N1CN(Cc2ccc(F)cc2)c2nc3ccccc3nc21 -48.3%
FC(F)(F)c1cccc(-c2cc3nc(NCCCn4ccnc4)ccn3n2)c1 -48%
O=C(Nc1ccc(Br)cc1)Nc1ccccc1Cl -38.3%
COc1cc(/C=N/NC(=O)CCn2c3ccccc3c3ccccc32)ccc1O -47.8%
COc1ccc(CN2C(=O)c3cccnc3C2Nc2ccc(C)cc2)cc1 (stereo not drawn) -33.2%

Activity change, active:
O=C(/C=C/c1ccc(S(=O)(=O)N2CCOCC2)cc1)Nc1cc(F)ccc1F -54.5%
COc1cccc(NC(=O)CSc2c3c(nc4ccccc24)CCCC3)c1 -96.4%
Cc1ccsc1CN(C)CC(=O)Nc1ccc([N+](=O)[O-])cc1Cl -78.9%
C#CCOCCOCCOCCNc1nc(N2CCN(C(=O)CCCCCCCCCCNC(=O)[C@H](CCCCN)n3cc(CCO)nn3)CC2)nc(N2CCN(C(=O)CCCCCCCCCCNC(=O)[C@H](CCCN=C(N)N)n3cc(C[C@@H](C)CC)nn3)CC2)n1 -98.1%
CCN(CC)c1ccc(N)cc1 -65.9%
O=C(CC1NCCc2ccccc21)Nc1ccc(Oc2ccccc2)cc1 (stereo not drawn) -153%
Cc1ccnc(Nc2nc(-c3ccc(O)c(O)c3)cs2)c1 -59.5%
CCCCc1nc2ccccc2c(N)c1CCC (tested in a mixture with another compound) -96.6%
CCOC(=O)c1c(NC(=O)COc2ccccc2OCC)sc2c1CC(C)(C)NC2(C)C -106%
O=C(Nc1ccc(F)cc1)c1nc2c(nnn2Cc2cccc3ccccc23)c(=O)[nH]1 -98.4%
COC(=O)C=C1CCC2C3CCC4=CC(=O)C(Br)CC4(C)C3C(=O)CC12C (stereo not drawn) -94.6%
Cc1c(N2C(=O)/C(=C\C3CC=CCC3)SC2=S)c(=O)n(-c2ccccc2)n1C (stereo not drawn) -101%
Oc1ccc(/C=N/N(Cc2ccccc2)c2ccccc2)cc1 -72.7%
CCOc1ccc(/C=N/NC(=O)Cc2ccccc2)cc1CN1CC2CC(C1)c1cccc(=O)n1C2 (stereo not drawn) -104%

Activity change, inactive:
CCOc1ccccc1/C=N/Nc1nc2c(N)ncnc2n1[C@H]1O[C@@H](CO)[C@H](O)[C@@H]1O 22.3%
CC(=O)Nc1ccc(-c2csc(Nc3ncccn3)n2)cc1 0%
CS(=O)(=O)/C(C#N)=C/c1cccn1S(=O)(=O)c1ccccc1 -2.43%
FC(F)Oc1ccccc1NC(=S)Nc1cccc(Cl)c1Cl 23.7%
CC(C)CSC1=NSC2=NC(=O)/C(=C\c3coc4ccccc4c3=O)C(=N)N12 3.92%
Cc1sc2ncnc(N3CCC(C(=O)NNC(=O)COc4ccc(Br)cc4)CC3)c2c1C -0.57%
CC1(C(=O)NS(=O)(=O)Cc2ccccc2)CCN1C(=O)Cc1ccc(-c2ccccc2)cc1 (stereo not drawn) 37.6%
O=C(c1cc(-c2ccccc2)on1)N(Cc1cccnc1)C(c1ccccn1)c1nc2ccccc2[nH]1 (stereo not drawn) 25.1%
CCc1cc(C(=O)O)c(NC(=O)c2cc(OC)c(OC)c(OC)c2)s1 6.5%
O=C(Nc1ncccc1O)c1ccc2ccccc2c1 46.6%
CS(=O)(=O)N1CCC(C(=O)N2CCN(C(c3ccccc3)c3ccccc3)CC2)CC1 -8.16%
CN(C)CCNc1ncnc2c1ncn2[C@H]1CN(Cc2ccc3c(c2)OCO3)C[C@@H](CO)O1 -15.5%
O=C(COC(=O)c1cccc(S(=O)(=O)N2CCOCC2)c1)NCCc1ccccc1 5.48%
CCCCCCCCN1C(=O)[C@H](CC(=O)NCCCC)C[C@@]2(C(=O)OCC)CCCC=C12 0%
CCC(C)(C)C1CCc2c(sc(N)c2C(N)=O)C1 (stereo not drawn) -15.2%
C=C(C)Cn1c(CCCNC(=O)CCC)nc2ccccc21 8.37%
S=C(Nc1ccc(Cl)cc1)N1CCOCC1 -26.4%
CCOC(=O)c1sc(NC(=O)CN2C(=O)NC3(CCCCCCC3)C2=O)c(C(=O)OCC)c1C -28.6%
CCOC(=O)N1CCN(S(=O)(=O)c2ccc(C)cc2)CC1 1.73%
CCN(CC)S(=O)(=O)c1cc(NC(=O)Cc2n[nH]c(=O)c3ccccc23)ccc1C -10.1%
C#CCNC(=O)C[C@@H]1C[C@@]2(C(=O)OC)CCCCC=C2N(Cc2ccc(Cl)cc2Cl)C1=O -19.3%
COc1ccc(CNC(=O)N2CCc3ccccc3C2)cc1Cl 38.7%
COc1ccc(Cc2nnc(NC(=O)CS(=O)(=O)Cc3ccccc3)s2)cc1 16.1%

Reference: PubChem BioAssay AID743279 (National Center for Advancing Translational Sciences (NCATS), 2014)
